# Reference: PubChem BioAssay AID602393 (Broad Institute, 2012)
# Screen size: about 350,000 compounds; about 7,000 (2%) were called active. The shares of active, inactive and inconclusive entries below differ from those in the screen. Cut-off read from the data, not from the text of the source: active = activation above about 40%; inconclusive = no clear call, values can overlap the other calls; inactive = below that.
# Experiment: raisers of Bmi1 knock-in reporter signal – mouse ES cells, Bmi1 luciferase knock-in, single point, esBAF inhibitor project, primary screen (AID 602393);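 note: 0% = median of the plate's neutral control wells and 100% = double that signal; a rise in the Bmi1 reporter signal indicates esBAF inhibition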
# Conditions: 24 h, at 12.5 µM, stronger effect = higher value, 100% = twice the neutral-well signal
row,SMILES,reporter increase
1,Cc1ccc(NC(=O)CNCc2cccs2)cc1Br,inconclusive: 39.1%
2,CN1[C@@H]2c3ccc(-c4ccccc4)c(=O)n3C[C@H]1[C@H](CO)[C@H]2C(=O)NCCc1ccccc1,inactive: 3.71%
3,Cc1cnc(C(=O)OCC(=O)Nc2ccc(OCc3ccccc3)cc2)cn1,inconclusive: 42.1%
4,O=C(Nc1ccccc1)C1=C[C@H](C2CCCCC2)C[C@H](OCCCCO)O1,inconclusive: 48.8%
5,NC(=O)c1ccsc1NC(=O)c1cccs1,active: 46.8%
6,CC1(C)CC(=O)C=C(Nc2cc(-c3ccccc3)[nH]n2)C1,inconclusive: 41.4%
7,Cc1cc(C(=O)CSc2ccc(F)cc2)cc(C)c1O,active: 56.1%
8,CCOc1ccc(CNc2ccc3c(c2)ncn3C(C)(C)C)cc1,inconclusive: 46.5%
9,Cc1cc2[nH]c(=O)c(=O)[nH]c2cc1S(=O)(=O)NC1CCCCC1C (configuration not stated),inactive: 1.18%
10,COc1ccc2cc3cc(C(=O)N4CC(C)CC(C)C4)oc3nc2c1 (configuration not stated),active: 57.6%
11,Cc1noc(C)c1NC(=O)N[C@@H]1CC[C@H](CC(=O)NCc2ccc(Cl)c(Cl)c2)O[C@H]1CO,inactive: -1.72%
12,CC(NCC(O)COC1CCC(C(C)(C)C)CC1)c1ccccc1 (configuration not stated),inactive: -13.1%
13,CCC(=O)NC(=S)Nc1ccc(-c2nc3ccc(C)cc3s2)cc1,inconclusive: 40.9%
14,Cc1ccc2nc(-c3cccc(Br)c3)c(Cc3cccc(Cl)c3)n2c1,inconclusive: 41.1%
15,Cc1ccnc(NC(=O)CNC(=O)c2ccc(C)s2)c1,inconclusive: 42.4%
16,Cc1csc(NC(=O)Cc2ccccc2Cl)n1,inconclusive: 46.4%
17,C=CCn1cccc(C(=O)Nc2ccc(N(C)C)cc2)c1=O,inconclusive: 47%
18,COc1cccc(-c2ccc3c(c2)[C@H]2[C@H](CCN2C(=O)NC2CCCC2)[C@H](CO)N3C)c1,inactive: 15.8%
19,O=c1c2c(-c3ccccc3)ccnc2[nH]n1-c1ccccc1,inconclusive: 23.1%
20,O=C(Nc1ccc(OCc2ccccc2)cc1)c1cccs1,active: 68.5%
21,Cc1cccc(C)c1OCc1cc(C(=O)N2CCC(c3ccncc3)CC2)no1,inconclusive: 40.7%
22,Cc1ccc(SCc2nc3ccccc3[nH]2)cc1,inconclusive: 40.5%
23,COc1ccc(-c2nnc(SCc3nc4ccccc4s3)n2C(C)C)cc1,inconclusive: 40.6%

row,SMILES,reporter increase
1,O=C(c1cnn2ccccc12)N1CCc2ccccc21,inconclusive: 40.6%
2,C[C@H](CO)N1C[C@H](C)[C@H](CN(C)C(=O)NC2CCCCC2)Oc2ccc(NC(=O)C3CC3)cc2CC1=O,inactive: -2.19%
3,Cc1cc(=O)oc2cc(OCC(=O)Nc3nccs3)ccc12,inactive: 17.2%
4,COc1ccc(/C=C/C(=O)Nc2ccccc2C(F)(F)F)cc1OC,inactive: -1.66%
5,CCCNC(=O)C[C@H]1CC[C@H]2[C@H](COc3ccc(NC(=O)CCC)cc3C(=O)N2C)O1,inactive: 4.09%
6,O/C(=C\c1ccc2ccccc2n1)c1ccncc1,inconclusive: 41.8%
7,CC(OC(=O)c1ccc(Cl)cc1)C(=O)NCc1ccc2c(c1)OCO2 (configuration not stated),inactive: -4.06%
8,Nc1ccc(-c2nc3ncccc3o2)cc1,inconclusive: 41.3%
9,CCC(CO)Nc1ncnc2c1cnn2-c1ccc(Cl)cc1 (configuration not stated),inactive: -18.4%
10,O=C(C[n+]1cccc2ccccc21)c1ccc(Br)cc1,inconclusive: 41.1%
11,Cc1ccc(NC(=O)C2C(=O)N(CCO)C3(C)CC2c2ccccc2O3)cc1 (configuration not stated),inactive: 34.7%
12,CC(=O)N=C(N)Sc1nc2ccccc2[nH]1,active: 68.5%
13,Cc1cc(C)n2nc(C(=O)OCC(=O)c3ccccc3)nc2n1,inactive: 0.27%
14,C/C=C/c1cnc2c(c1)C(=O)N([C@H](C)CO)C[C@H](C)[C@@H](CN(C)C(=O)NC1CCCCC1)O2,inactive: 0.789%
15,Cc1ccc(SCc2nc(-c3ccccn3)no2)cc1,inconclusive: 41.7%
16,COc1ccc(-c2nnc(NC(=O)C3CCCO3)s2)cc1 (configuration not stated),inconclusive: 45.9%
17,C#CCNC(=O)C1=C[C@H](C2CCCCC2)C[C@H](OCc2ccc(CO)cc2)O1,inconclusive: 43.6%
18,COc1ccc(C2CC(c3cccc([N+](=O)[O-])c3)=NN2/C(C)=C/C(C)=O)cc1 (configuration not stated),inconclusive: 45%
19,CCCNC(=O)Nc1ccc2c(c1)C(=O)N(C)C[C@H](OC)[C@H](C)CN(C(=O)c1ccccc1F)[C@H](C)CO2,inactive: -18.1%
20,Nc1ccc(N=Nc2ccccc2)c2cccnc12,inconclusive: 49.1%
21,COc1ccc(/C=C/C(=O)Oc2cccc(/C=N/NC(=O)c3cccc(F)c3)c2)cc1,active: 45.4%
22,Cc1cc(C)nc(NC(=O)c2cccs2)c1,inconclusive: 43.1%
23,COc1ccc(NC(C)=O)cc1NC(=O)c1ccc(C#N)cc1,inactive: -0.626%

row,SMILES,reporter increase
1,CCC(=O)Nc1nc(-c2ccc3c(c2)OCCO3)cs1,inconclusive: 44.4%
2,O=C(Nc1ccc2c(c1)OCO2)Nc1cnccn1,inconclusive: 45.2%
3,COc1ccc(NC(=O)c2cc3ccccc3o2)cc1OC,inconclusive: 41.5%
4,O=C(Cn1cc(C(F)(F)F)cc(Cl)c1=O)NCc1ccccc1,inconclusive: 40%
5,Cc1ccc(NC(=O)C(=O)NCc2ccco2)c(C)c1,active: 47.2%
6,O=C(N/N=C/c1ccccn1)c1ccc(Cl)cc1,inconclusive: 42.7%
7,COc1cc(C2NC(=S)NC(C)=C2C(=O)Nc2ccc(C)cc2)ccc1O (configuration not stated),inconclusive: 40.6%
8,CCN(CCn1cccn1)C(=O)c1cc(COc2ccc(F)c(F)c2)on1,inconclusive: 44.6%
9,COC(=O)[C@H]1C[C@@H]1[C@H](N)c1ccccc1,inactive: -1.5%
10,CCc1ccc(NC(=O)CSc2nncn2-c2cccnc2)cc1,inconclusive: 41%
11,Clc1ccc(C=Cc2ccccn2)cc1,inconclusive: 42.7%
12,O=c1c2ccccc2nc2sc(Nc3ccc(F)cc3)nn12,inconclusive: 40.1%
13,CC(=O)c1ccc(Oc2ccc(C(C)=O)cc2)cc1,active: 42%
14,CC(C)(C)OC(=O)NNC1CC(=O)N(c2ccccc2F)C1=O (configuration not stated),inactive: 5.57%
15,COCCNC(=O)c1ccc2nc(Cc3ccc(OC)c(OC)c3)oc2c1,active: 48.6%
16,C=CCSc1nnc(NC(=O)c2ccc(NC(C)=O)cc2)s1,inconclusive: 43.2%
17,CC(=O)n1cc(/C=N/NC(=O)c2ccccc2O)c2ccccc21,inconclusive: 39.7%
18,CCCC(=O)N1CCN(c2nc3ccc(Cl)cc3s2)CC1,active: 52%
19,COc1ccc2[nH]c(=O)c(-c3nnn(-c4ccccc4)n3)cc2c1,active: 58.2%
20,COc1ccc(C(=O)Nc2ccc3c(c2)nc(CN2CCCC2)n3C)cc1,inconclusive: 58.2%
21,C[C@@H]1CCCCO[C@@H](CN(C)Cc2ccncc2)[C@@H](C)CN([C@@H](C)CO)C(=O)c2cc(NC(=O)Nc3ccc4c(c3)OCO4)ccc2O1,inconclusive: 43.7%
22,CSc1ccccc1OCc1cc(C(=O)N(C)C(C)c2ccccn2)no1 (configuration not stated),inactive: -0.19%
23,Cn1cc(Cl)cc(C(=O)Nc2ccccc2)c1=O,inconclusive: 66.1%

row,SMILES,reporter increase
1,O=Cc1ccccc1OCCOc1ccccc1C=O,inconclusive: 45.8%
2,Cc1ccc(C(=O)NC2CCCCCC2)o1,inconclusive: 40.7%
3,CCCOC(=O)c1ccc(NC(=O)C(CC)CC)cc1,active: 50.9%
4,Cc1cc2ncc(-c3ccc(Cl)cc3)cn2n1,inconclusive: 45.2%
5,Brc1ccc(-c2ccc(/C=N/Nc3nc4ccccc4[nH]3)o2)cc1,inconclusive: 43.5%
6,CCCOC(=O)c1ccc(NC(=O)/C=C/c2cccs2)cc1,inconclusive: 42.2%
7,C[C@@H]1CN([C@H](C)CO)C(=O)Cc2cc(NC(=O)Nc3ccc(F)cc3)ccc2O[C@H]1CN(C)S(=O)(=O)c1ccc(Cl)cc1,inactive: 0.463%
8,O=C(CSc1nnc(-c2cccs2)o1)c1cccs1,active: 104%
9,CCCCCC1CC(CC(=O)O)C(=O)O1 (configuration not stated),inactive: -3.56%
10,O=C(N/N=C/c1cccs1)c1c[nH]c2ccccc12,inconclusive: 43.6%
11,C[C@@H]1CN([C@H](C)CO)C(=O)Cc2cc(NC(=O)CCC(F)(F)F)ccc2O[C@H]1CN(C)S(=O)(=O)c1ccc(F)cc1,inactive: 1.49%
12,C=CCSc1nnc(NC(=O)CCN2C(=O)C3CC=CCC3C2=O)s1 (configuration not stated),inconclusive: 42.8%
13,C[C@@H]1CCCCO[C@@H](CN(C)C)[C@H](C)CN([C@H](C)CO)C(=O)c2cc(NC(=O)Nc3ccccc3)ccc2O1,inactive: 4.43%
14,COc1cccc(N/C=C/C(=O)c2ccc(OC)c(OC)c2)c1,inconclusive: 40.7%
15,Cc1cc(NC(=O)c2cccc(COc3ccc(Br)cc3)c2)no1,inactive: 9.72%
16,C/C(=N/Nc1nc(-c2ccccc2)c(CC(=O)O)s1)c1ccccc1,inconclusive: 40.9%
17,S=C(c1ccc(-c2cccc(Cl)c2)o1)N1CCOCC1,inconclusive: 41.5%
18,Cc1cccc(C(=O)Nc2ccc3c(c2)C(=O)N(CC(C)C)C3=O)c1,inconclusive: 49.4%
19,O=C(NCCc1ccc(Cl)cc1)c1cccs1,inconclusive: 33%
20,O=C1/C(=C\c2ccc(O)c(O)c2)SC(=S)N1Cc1ccccc1,inactive: -3.69%
21,COc1ccc(/C=N/N2CCN(c3ccccc3OC)CC2)cc1Br,inactive: 37.9%
22,CSc1ccccc1OCc1cc(C(=O)N(C)Cc2cnccn2)no1,inconclusive: 42.4%
23,Cc1cc(Nc2ccccc2)n2nc(C)c(-c3ccccc3)c2n1,inconclusive: 41.6%
